Assay results reported in paper PMC4336329 (PLoS ONE, 2015).
About 14,000 (4.5%) of roughly 310,000 compounds showed an effect of 50% or more. Effects have a minus sign here. The list shows a part of the results.

Biological target: human ether-à-go-go-related gene (hERG) potassium channel (human, UniProt Q12809)
Experiment: primary screen, population patch clamp on CHO cells stably expressing hERG
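Note: peak tail current of the secondary pulse compared with the same well before compound.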

Chain of human ether-à-go-go-related gene (hERG) potassium channel (Q12809 whole entry, looked up): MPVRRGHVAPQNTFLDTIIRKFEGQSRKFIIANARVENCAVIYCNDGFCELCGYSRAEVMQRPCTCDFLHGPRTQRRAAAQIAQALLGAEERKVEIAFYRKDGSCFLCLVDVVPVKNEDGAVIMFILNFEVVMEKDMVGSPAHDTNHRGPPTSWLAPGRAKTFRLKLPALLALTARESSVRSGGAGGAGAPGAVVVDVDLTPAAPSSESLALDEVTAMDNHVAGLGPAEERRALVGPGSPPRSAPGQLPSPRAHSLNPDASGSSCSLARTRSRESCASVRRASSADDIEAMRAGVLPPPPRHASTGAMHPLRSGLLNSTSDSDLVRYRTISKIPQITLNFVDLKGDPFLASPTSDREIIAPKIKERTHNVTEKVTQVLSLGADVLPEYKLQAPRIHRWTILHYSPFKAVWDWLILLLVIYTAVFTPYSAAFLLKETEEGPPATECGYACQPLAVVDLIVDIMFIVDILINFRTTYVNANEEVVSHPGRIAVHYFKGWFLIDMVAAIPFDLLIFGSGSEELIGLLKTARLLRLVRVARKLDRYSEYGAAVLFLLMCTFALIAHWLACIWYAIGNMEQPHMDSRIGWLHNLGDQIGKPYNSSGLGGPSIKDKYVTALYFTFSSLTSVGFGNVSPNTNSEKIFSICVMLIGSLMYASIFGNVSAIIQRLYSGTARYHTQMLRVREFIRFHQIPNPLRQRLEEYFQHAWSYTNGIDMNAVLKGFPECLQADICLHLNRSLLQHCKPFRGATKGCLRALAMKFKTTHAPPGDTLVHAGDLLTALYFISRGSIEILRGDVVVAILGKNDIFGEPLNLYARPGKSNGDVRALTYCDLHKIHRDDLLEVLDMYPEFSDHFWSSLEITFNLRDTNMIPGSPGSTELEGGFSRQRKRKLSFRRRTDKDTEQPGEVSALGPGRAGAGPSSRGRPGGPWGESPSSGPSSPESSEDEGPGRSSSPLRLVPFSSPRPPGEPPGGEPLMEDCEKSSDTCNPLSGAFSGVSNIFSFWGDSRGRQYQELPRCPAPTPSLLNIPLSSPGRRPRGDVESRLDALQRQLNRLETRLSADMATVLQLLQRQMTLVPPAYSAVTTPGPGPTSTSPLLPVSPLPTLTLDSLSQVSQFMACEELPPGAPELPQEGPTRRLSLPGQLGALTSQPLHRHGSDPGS

Structure (SMILES) | hERG current change (%, negative = inhibition) at 10uM
Cc1[nH]c2ccccc2c1C(=O)CN1CCCC1 | 5.09%
CCOC(=O)C1CCCN(CC(=O)c2ccc(F)cc2)C1.O=C(O)C(=O)O (centres unmarked) | -4.5%
O=c1c2ccccc2[nH]c(=S)n1-c1ccc2c(c1)OCCO2 | 14.8%
COc1ccc(CNC(=O)C2CCCN2C)cc1OC (centres unmarked) | 4.85%
CCN(CC)CCOC(=O)C(O)(c1ccccc1)c1ccccc1.Cl | -42.1%
Cc1cc(=O)n2[nH]c(-c3cccc(Cl)c3)cc2n1 | -3.21%
COc1ccc(C2CC(c3cccs3)=NN2C(=O)CSC2=NN3CCCC(=O)N=C3S2)cc1 (centres unmarked) | -24.5%
c1ccc(CCC2Cc3ccccc3N2)cc1 (centres unmarked) | -0.839%
COc1cccc(SCC(=O)N2CCN(c3ccccc3)CC2)c1 | -1.23%
COc1ccc(NC(=O)C2CCCO2)c(OC)c1 (centres unmarked) | 15.3%
CCC(C)[C@H](NC(=O)C1CCN(C(=O)[C@H](Cc2ccccc2)NS(=O)(=O)c2ccc(C)cc2)CC1)C(=O)O (some centres unmarked) | 17.6%
Cn1c(CSc2nc3ccccc3s2)nnc1SCC(=O)NCc1ccccn1 | 3.84%
COCCOC(=O)C1=C(C)NC(=O)NC1c1c(OC)ncnc1OC (centres unmarked) | 15.1%
CCCn1c(=O)n(CC(=O)NCC2CCCO2)c(=O)c2c3c(sc21)COC(C)(C)C3 (centres unmarked) | 12.2%
CS(=O)(=O)N(CC(=O)N1CCCCCC1)c1ccc2c(c1)OCCO2 | -4.29%
Cn1c(=O)c(C(=O)Nc2ccccn2)c(O)c2ccccc21 | 5.7%
Cc1ccc(NC(=O)CCOc2ccccc2)cc1S(=O)(=O)Nc1ccccc1Cl | 4.04%
O=C(O)c1cc(-c2ccc(Cl)s2)nc2ccccc12 | 58.7%
Cc1ccc(NC2=NC(c3ccc(C)cc3)n3c(nc(C)cc3=O)N2)cc1 (centres unmarked) | 28.9%
COc1ccc(OCC(=O)NCCc2ccc(S(N)(=O)=O)cc2)cc1 | -10.3%
Cn1c(N)c(C(=O)COC(=O)/C=C/c2ccc(Cl)cc2)c(=O)n(C)c1=O | -43.3%
CCc1nc2sc(C)c(C)c2c(=O)n1CCO | 11.1%
COc1ccc(OC)c(S(=O)(=O)N/N=C\c2c[nH]c3ccccc23)c1 | -2.08%

Structure (SMILES) | hERG current change (%, negative = inhibition) at 10uM
COCc1nnc(NC(=O)c2ccccc2[N+](=O)[O-])s1 | 12.3%
O=C(COc1ccc(C(=O)c2ccccc2)cc1)Nc1cccnc1 | 129%
COc1ccc(-c2cnnn2-c2ccc(NC(=O)c3ccc(S(=O)(=O)N4CCCCC4)cc3)cc2)cc1OC | 6.76%
C/C=C/Cn1c(N2CCCCCC2)nc2c1c(=O)[nH]c(=O)n2C | -5.14%
Cn1nnnc1SCC(=O)Nc1cc(C(C)(C)C)nn1-c1ccccc1 | -18.1%
CCN(CC)C(=O)/C(=C\c1cccc([N+](=O)[O-])c1)NC(=O)c1ccco1 | -24%
CSc1nc2nccc(-c3ccc4c(c3)OCO4)n2n1 | -27.2%
COC(=O)c1cc(C#N)c(N2CCOCC2)nc1C | -6.93%
CCOc1ccccc1C(=O)Nc1cc(C(=O)NCCc2ccccc2)ccc1Cl | -15.8%
CC(C)(C)CN1C(N)=NC[C@@H]1Cc1ccccc1 | -3.17%
C=CCn1c(SCC(=O)Nc2nnc(CC)s2)nnc1-c1cccnc1 | -20.9%
CC(=O)N1CCc2c(sc(NC(=O)CCS(=O)(=O)c3ccccc3)c2C#N)C1 | 12.8%
CC(=O)c1sc(-c2ccc(F)cc2F)nc1C | 11.2%
NS(=O)(=O)c1ccc(NC(=O)COC(=O)/C=C/c2ccc([N+](=O)[O-])cc2)cc1 | 11.7%
CC(=O)Nc1ccccc1C(=O)C(=O)Nc1ccc(C)c(F)c1 | 24.3%
COCCn1c(C)cc(C(=O)COC(=O)CCN2C(=O)c3ccccc3C2=O)c1C | 5.58%
O=C1Nc2ccc(S(=O)(=O)NCC3CCCO3)c3cccc1c23 (centres unmarked) | -3.92%
Cc1ccc(C(=O)OCC(=O)NC(C)C)cc1S(=O)(=O)N1CCOCC1 | 12.1%
CCOC(=O)CCCNC(=O)CCNC(=O)c1ccc(OCC)cc1 | 4.59%
O=C(NCc1ccccc1Cl)C1CCCN1S(=O)(=O)c1ccc(F)cc1 (centres unmarked) | 6.59%
CCCCN1CCN=C1N(C)C | 12%
CCC(C)(C)n1nnnc1CN1CCN(c2nc3ccc(C)cc3cc2C#N)CC1 | -6.63%
CCOC(=O)c1c(Nc2ccccc2)sc(/C=C2\C=Nc3ccccc32)c1O | 0.585%

Structure (SMILES) | hERG current change (%, negative = inhibition) at 10uM
COc1cccc(C(=O)Nc2cc([N+](=O)[O-])ccc2N2CCN(C)CC2)c1 | -71.7%
COc1ccc(S(=O)(=O)Nc2ccc(S(=O)(=O)Nc3cc(C)nc(C)n3)cc2)cc1OC | 23.9%
COc1ccc(C)cc1NC(=O)C(OC(=O)CNC(=O)c1ccc(Oc2ccccc2)cc1)c1ccccc1 (centres unmarked) | 10.1%
Cc1[nH]c2ccccc2c1C(=O)CSC(=S)N1CCN(C)CC1 | 4.09%
COCCn1c(=NC(=O)c2cc(-c3cccs3)nc3ccccc23)sc2cc(S(N)(=O)=O)ccc21 | 5.73%
O=C(N/N=C/c1ccsc1)c1ccc2c(c1)OCO2 | 2.91%
CCc1ccc(OCCn2ccnc2)cc1 | 5.34%
COC(=O)C1=C(O)/C(=C/c2ccc(OCC(=O)Nc3ccccc3)cc2)N=C1C | 8.91%
Cc1ccccc1NC(=O)c1cccc(S(=O)(=O)N2CCCCC2)c1 | -29.3%
O=C(/C=C/c1cccc([N+](=O)[O-])c1)N1CCN(S(=O)(=O)c2cccs2)CC1 | -62.2%
CCOC(=O)c1cccc(NC(=O)c2ccc3c(c2)OCO3)c1 | -22.7%
CCCCCCCC[n+]1cccc(C(=O)N2c3c(nc(N)[nH]c3=O)NC(C)C2C)c1.[I-] (centres unmarked) | 1.98%
N/C(=N\N=C\c1cccc(O)c1)c1nonc1N | 11.8%
N#CCc1ccc(NC(=O)Cn2c(=O)oc3ccccc32)cc1 | 13%
COc1ccc(-c2ccc(CCC(=O)O)n2Cc2ccco2)cc1 | -4.41%
CC(C)CC(=O)Nc1nnc(CCc2ccccc2)s1 | 1.75%
N#Cc1ccc(COC(=O)c2cc(=O)c3ccccc3o2)cc1 | 12.9%
C/C(CC(=O)Nc1ccc(Cl)c(C(F)(F)F)c1)=N\NC(N)=S | -16.8%
COc1cc(/C=C2\CC/C(=C\c3cc(OC)c(O)c(OC)c3)C2=O)cc(OC)c1O | 0.669%
O=S(=O)(Cc1ccccc1)N1CCC(c2nc(-c3cccs3)no2)CC1 | -8.76%
CC(=O)Oc1ccccc1C1OCCN1C(C)=O (centres unmarked) | 0.847%
CS(=O)(=O)N(Cc1ccccc1)c1ccc(C(=O)NCCSc2ccccn2)cc1 | -15.8%
Oc1c(Br)cc(Br)cc1CNc1ccc(F)cc1 | 9.71%

Structure (SMILES) | hERG current change (%, negative = inhibition) at 10uM
O=C(Nc1cccc(NS(=O)(=O)c2ccc(S(=O)(=O)NC3CC3)cc2)c1)c1ccccn1 | 0.802%
COc1ccc(-c2noc3c2-c2nc(-c4ccc(Br)cc4)sc2CC3)cc1 | 10.7%
CCSc1nnc2n(-c3ccc(OC)cc3)c(=O)c3c4c(sc3n12)CCCC4 | -6.75%
O=C(COC(=O)C1CC2CCCC(C1)C2=O)NC(=O)c1ccc(OC(F)F)cc1 (centres unmarked) | 23.2%
O=C(CSc1nc2[nH]c(=O)cc(O)c2s1)Nc1cccc(Br)c1 | 13.6%
COc1ccc(O)c(/C=N/c2nc3ccccc3n2C)c1 | -22.9%
Cc1ccc(SCCC(=O)Nc2ccc(OCc3ccccc3)cc2)cc1 | 13.4%
Cc1nnc(Nc2ccc(Cl)c(C(F)(F)F)c2)[nH]c1=O | 9.01%
O=C(Cn1nc(-c2ccccc2)c2ccccc2c1=O)NCC1CCCO1 (centres unmarked) | 9.05%
O=C1C2C3C=CC(C3=C3CCCCC3)C2C(=O)N1Cc1ccccc1 (centres unmarked) | 1.43%
OCCC1CN(Cc2ccc3nonc3c2)CCN1Cc1ccsc1 (centres unmarked) | -66.1%
Cc1nnsc1C(=O)NNc1c(Cl)cccc1Cl | 17.3%
CCCNC(=O)CN1C(=O)NC2(CCCc3cc(OC)ccc32)C1=O (centres unmarked) | -7.72%
COc1ccc(C(=O)NC(=S)NNC(=O)c2cccc(C)c2)cc1 | 21.5%
O=C(c1ccc(F)cc1)N1CCC(N2CCCCCC2)CC1 | -26%
NS(=O)(=O)c1ccc(NC(=S)NC(=O)c2ccco2)cc1 | 4.4%
Cc1ccc(-n2c(N)c(C(=O)NCc3ccco3)sc2=S)cc1 | -20.4%
CN1CCN(c2ccc(Cl)cc2NC(=O)CN2C(=O)NC(C)(c3ccccc3)C2=O)CC1 (centres unmarked) | -23.7%
CCCS(=O)(=O)N1CCC(C(=O)NCCN(CC)c2ccccc2)CC1 | -13.5%
COc1cccc2cc(C(=O)N3CCN(c4ccc(C)cc4C)CC3)c(=O)oc12 | -6.72%
